± gives the uncertainty stated by the source. Over roughly 9,900 compounds, “viability index relative to DMSO control” has its median near 1; the lowest 2% begin near 0.85. The list shows a part of the results.
Tested on: Plasmodium falciparum NF54 stage V gametocytes
Assay: viability index relative to DMSO control (fraction); higher = less gametocyte killing
Details: 2.5 µM, incubation time: 72 h
In short: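 Stage V gametocytes of P. falciparum NF54 were held in serum-free screening medium at 0.75% gametocytemia and 1.25% hematocrit, 10 µl per well of a 1,536-well plate, and exposed to compound at 2.5 µM for 72 hr at 37°C under low oxygen. A 3 µl mix of 2.5 µM MitoTracker Red CMXRos with 0.13% saponin was then added for one to two hours, after which one field per well was imaged and red particles of 20–70 µm2 were counted. The viability index equals this count divided by the plate mean from wells given solvent alone.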

[1] = library set: Broad Institute DOS
[2] = library set: Broad Institute Blood Stage

SMILES	viability index [1]	viability index [2]
CO[C@H]1CC[C@@H]2CCN(C)C(=O)[C@@H](C)N(C)C(=O)c3cccc(C#N)c3OC[C@H]1O2	0.96924 ± 3.9e-05	–
COc1ccc2c3c([C@@H](CO)N(C[C@]33CN(CC4CC4)C3)C(=O)Nc3c(C)noc3C)n(C)c2c1	1.03 ± 0.17	–
COCC#Cc1ccc([C@@H]2[C@@H](CO)N3C(=O)CN(C(=O)CN4CCOCC4)C[C@@H]23)cc1	1.073 ± 0.0026	–
O=C(C[C@@H]1CC[C@@H]2NC[C@@H](O)COC[C@H]2O1)Nc1ccc(-c2ccccc2)cc1	1.06 ± 0.024	–
CO[C@@H]1CN(C)C(=O)c2cc(NC(=O)NC(C)C)ccc2OC[C@H](C)N(Cc2ccccc2)C[C@H]1C	0.984 ± 0.061	–
O=C(C[C@H]1CC[C@H]2[C@@H](COC[C@@H](O)CN2Cc2ccc(Oc3ccccc3)cc2)O1)N1CCN(c2ccccc2)CC1	1.08 ± 0.14	–
COc1cccc(S(=O)(=O)N2C[C@H](O)COC[C@@H]3O[C@H](CC(=O)N4CCN(c5ccccc5)CC4)CC[C@H]32)c1	0.96247 ± 0.00031	–
C/C=C/c1ccccc1[C@@H]1[C@@H](CO)N(C(=O)CN2CCOCC2)[C@H]1C#N	1.11 ± 0.11	–
CCc1nc(N2[C@@H](C#N)[C@H](c3ccccc3-c3ccccc3C)[C@@H]2CO)sc1C	0.81 ± 0.063	–
Cc1noc(C)c1S(=O)(=O)N(C)C[C@@H]1OCCCC[C@@H](C)Oc2ccc(NC(=O)CCC(F)(F)F)cc2C(=O)N([C@H](C)CO)C[C@H]1C	1.04 ± 0.022	–
COCCNC(=O)C[C@H]1CC[C@H]2[C@H](COc3ccc(NS(=O)(=O)c4ccc(Cl)cc4)cc3C(=O)N2C)O1	1.13 ± 0.084	–
O=C(C[C@H]1CC[C@@H]2NC[C@@H](O)COC[C@H]2O1)Nc1ccc(-c2ccccc2)cc1	1.01 ± 0.098	–
COCCNC(=O)c1cc2c(c(-c3cccc(-c4cccc(OC)c4)c3)n1)[C@@H](CCO)N(S(=O)C(C)(C)C)C2 (stereo not given in full)	1.022 ± 0.0092	–
CCCNC(=O)N1C[C@]2(CCN(CC2)C(=O)C2CCOCC2)c2c([nH]c3cc(OC)ccc23)[C@@H]1CO	1.034 ± 0.01	–
O=C(NC1CCCCC1)N1CC2(C1)[C@@H](c1ccccc1)[C@@H](CO)N2S(=O)(=O)Cc1ccccc1	1.12 ± 0.026	–
C[C@@H]1CCCCO[C@@H](CN(C)CC2CCCCC2)[C@@H](C)CN([C@@H](C)CO)C(=O)c2cc(NC(=O)Nc3ccc(C(F)(F)F)cc3)ccc2O1	1.1 ± 0.048	–
Cc1ccc(S(=O)(=O)N2C[C@H](O)COC[C@@H]3O[C@H](CC(=O)NCc4ccc5c(c4)OCO5)CC[C@H]32)cc1	1.01 ± 0.047	–
CCCNC(=O)N1[C@@H](C#N)[C@@H](c2ccc(C#Cc3cccc(F)c3)cc2)[C@@H]1CO	1.05 ± 0.056	–
C[C@H]1CN([C@@H](C)CO)C(=O)c2cc(/C=C/c3ccccc3)cnc2O[C@@H]1CN(C)S(=O)(=O)c1ccccc1F	1.03 ± 0.082	–
COc1cccc(S(=O)(=O)N2CCCCN3[C@H](CO)[C@@H](c4ccc(C#CCC(C)C)cc4)[C@@H]3C2)c1	0.941 ± 0.042	–
CO[C@@H]1CC[C@@H]2CCOc3ccc(C#N)cc3C(=O)N(C)C[C@@H](c3ccccc3)CC(=O)N(C)C[C@@H]1O2	1.06 ± 0.015	–
COc1ccc2c3c([nH]c2c1)[C@H](CO)N(C[C@]31CN(C1)S(C)(=O)=O)C(=O)C1CCCCC1	1.09 ± 0.1	–

SMILES	viability index [1]	viability index [2]
CCCNC(=O)N1CC(=O)N2[C@@H](CO)[C@H](c3ccc(C#CCC4CCCC4)cc3)[C@@H]2C1	1.02 ± 0.14	–
COc1ccccc1CNC(=O)C[C@@H]1C[C@H]2c3cc(NC(=O)C4CCC4)ccc3O[C@H]2[C@H](CO)O1	1.11 ± 0.17	–
CO[C@@H]1CN(C)C(=O)c2ccc(NC(=O)Nc3ccccc3F)cc2OC[C@@H](C)N(Cc2ccccc2F)C[C@H]1C	–	0.947 ± 0.014
COc1cccc(CNC(=O)C[C@H]2CC[C@@H]3[C@@H](COc4ccc(NS(=O)(=O)c5ccccc5F)cc4C(=O)N3C)O2)c1	0.931 ± 0.13	–
C[C@@H]1CN([C@@H](C)CO)C(=O)c2ccccc2-c2ccccc2CO[C@@H]1CN(C)Cc1cccc(C(=O)O)c1	0.974 ± 0.098	–
Cc1ccccc1-c1cnc2c(c1)C(=O)N([C@@H](C)CO)C[C@@H](C)[C@@H](CN(C)Cc1ccccc1F)O2	1.12 ± 0.051	–
Cc1ccc(S(=O)(=O)Nc2ccc3c(c2)C(=O)N([C@@H](C)CO)C[C@@H](C)[C@H](CN(C)S(=O)(=O)c2cccs2)OCCCC[C@H](C)O3)cc1	0.999 ± 0.098	–
COc1ccc(S(=O)(=O)N(C)C[C@@H]2Oc3ccc(NC(=O)Cc4cn(C)c5ccccc45)cc3C(=O)N([C@H](C)CO)C[C@@H]2C)cc1	0.964 ± 0.098	–
O=C(NCc1cc(F)cc(F)c1)[C@H]1[C@H](CO)[C@H]2Cn3c(cccc3=O)[C@@H]1N2C(=O)c1cnccn1	1.01 ± 0.061	–
CO[C@@H]1CN(C)C(=O)c2ccc(NC(C)=O)cc2OC[C@@H](C)N(Cc2cccc(F)c2)C[C@H]1C	1.07 ± 0.021	–
Cc1noc(C)c1NC(=O)Nc1ccc2c(c1)C(=O)N([C@H](C)CO)C[C@@H](C)[C@@H](CN(C)Cc1ccc3c(c1)OCO3)OCCCC[C@@H](C)O2	1.12 ± 0.057	–
C[C@@H]1C/C=C/C[C@H](c2ccc(F)cc2)NC(=O)[C@@H](Cc2ccccc2)N(C)C(=O)c2ccccc2O1.C[C@@H]1C/C=C\C[C@H](c2ccc(F)cc2)NC(=O)[C@@H](Cc2ccccc2)N(C)C(=O)c2ccccc2O1	0.968 ± 0.02	–
N#C[C@@H]1[C@@H](c2ccccc2C2=CCCC2)[C@H](CO)N1C(=O)Cc1ccncc1	1.1 ± 0.067	–
O=C(Nc1ccc(F)cc1)N1CC(=O)N2[C@H](CO)[C@H](c3ccc(-c4cccc(F)c4)cc3)[C@@H]2C1	0.97 ± 0.035	–
COc1ccc2c3c([nH]c2c1)[C@H](CO)N(C)C[C@]31CCN(CC1)S(=O)(=O)c1cn(C)cn1	0.892 ± 0.039	–
CCCNC(=O)N1CC(=O)N2[C@H](CO)[C@@H](c3ccc(C#CCC4CCCC4)cc3)[C@@H]2C1	0.997 ± 0.11	–
N#Cc1ccc(-c2ccc([C@@H]3[C@@H]4CN(C(=O)C5CCCCC5)C[C@H]3N4)cc2)cc1	0.948 ± 0.055	–
CCCNC(=O)[C@@H]1[C@@H](CO)[C@@H]2Cn3c(ccc(C4=CCCCC4)c3=O)[C@@H]2N1Cc1ccccc1F	1.0042 ± 0.00092	–
CN1C(=O)c2cc(NC(=O)C3CCOCC3)ccc2OC[C@H]2O[C@@H](CC(=O)NCC3CCCCC3)CC[C@H]21	1.1 ± 0.064	–
CCCNC(=O)C[C@H]1CC[C@H]2[C@@H](COC[C@@H](O)CN2Cc2ccncc2)O1	1.11 ± 0.015	–
O=C(C[C@@H]1C[C@@H]2c3cc(NC(=O)c4ccc5c(c4)OCO5)ccc3O[C@@H]2[C@@H](CO)O1)NCc1ccc(Oc2ccccc2)cc1	0.981 ± 0.069	–
Cc1noc(C)c1NC(=O)N(C)C[C@@H]1OCCCC[C@@H](C)Oc2ccc(NC(=O)Nc3ccc(C(F)(F)F)cc3)cc2C(=O)N([C@H](C)CO)C[C@H]1C	1.08 ± 0.073	–

SMILES	viability index [1]	viability index [2]
O=C(C[C@@H]1C[C@H]2c3cc(NC(=O)Nc4ccccc4)ccc3O[C@H]2[C@@H](CO)O1)NCc1ccccc1	1.07 ± 0.064	–
CCCNC(=O)Nc1ccc2c(c1)OC[C@H](C)N(Cc1cncnc1)C[C@@H](C)[C@@H](OC)CN(C)C2=O	1.02 ± 0.021	–
NCC[C@H]1CC[C@@H](NS(=O)(=O)c2ccc(Cl)cc2)[C@H](CO)O1	1.07 ± 0.15	–
O=S(=O)(c1ccccc1)N1CCCCN2[C@@H](CO)[C@@H](c3ccc(C#CC4CCCC4)cc3)[C@@H]2C1	0.8429 ± 0.006	–
Cc1ccc(S(=O)(=O)Nc2ccc3c(c2)C(=O)N([C@H](C)CO)C[C@@H](C)[C@H](CN(C)S(=O)(=O)c2cccs2)OCCCC[C@H](C)O3)cc1	1.04 ± 0.077	–
CC(C)C(=O)Nc1ccc2c(c1)C(=O)N(C)[C@H]1CC[C@@H](CC(=O)NCCc3ccccc3)O[C@H]1CO2	1.07 ± 0.063	–
Cc1ccc(S(=O)(=O)Nc2ccc3c(c2)C(=O)N(C)[C@H]2CC[C@@H](CC(=O)NCCc4ccncc4)O[C@H]2CO3)cc1	0.918 ± 0.048	–
COc1ccc2c3c([C@@H](CO)N(C[C@]33CCN(C)CC3)S(=O)(=O)c3cn(C)cn3)n(C)c2c1	1.1 ± 0.066	–
COc1ccc(S(=O)(=O)Nc2ccc3c(c2)C(=O)N([C@H](C)CO)C[C@@H](C)[C@H](CN(C)S(=O)(=O)c2ccc(Cl)cc2)OCCCC[C@H](C)O3)cc1	0.823 ± 0.033	–
Cc1noc(C)c1S(=O)(=O)Nc1ccc2c(c1)C(=O)N([C@H](C)CO)C[C@H](C)[C@@H](CN(C)C(=O)NC1CCCCC1)O2	1.05 ± 0.14	–
O=C(Cc1cccnc1)N1CC2(C1)[C@H](c1ccccc1)[C@H](CO)N2C(=O)C1CCOCC1	1.156 ± 0.0057	–
CN1C(=O)c2cc(NC(=O)c3cccc(Cl)c3)ccc2OC[C@@H]2O[C@@H](CC(=O)NC3CCCCC3)CC[C@@H]21	0.911 ± 0.075	–
C[C@@H]1CN([C@@H](C)CO)C(=O)c2cccc(NC(=O)Nc3ccc(F)cc3)c2O[C@@H]1CN(C)S(=O)(=O)c1ccc(Cl)cc1	0.9877 ± 0.002	–
CCCC#Cc1ccc2c(c1)O[C@@H](CN(C)Cc1ccccn1)[C@H](C)CN([C@@H](C)CO)S2(=O)=O	0.9365 ± 0.0091	–
Cc1cc(C(=O)Nc2cccc3c2O[C@H](CN(C)C)[C@H](C)CN([C@H](C)CO)C3=O)n(C)n1	0.968 ± 0.029	–
O=C(Nc1cc(F)ccc1F)N1CC(=O)N2[C@H](CO)[C@@H](c3ccc(/C=C/c4ccccc4)cc3)[C@@H]2C1	1.059 ± 0.0045	–
CCC(=O)N1[C@@H](CO)[C@H](c2ccccc2)C12CN(C(=O)c1ccc3c(c1)OCO3)C2	0.971 ± 0.017	–
N#C[C@H]1[C@H](c2ccccc2-c2ccccc2F)[C@H](CO)N1C(=O)C1CCC1	1.14 ± 0.022	–
COc1ccccc1S(=O)(=O)N(C)C[C@@H]1OCc2ccccc2-c2c(n(C)c3ccccc23)C(=O)N([C@@H](C)CO)C[C@@H]1C	–	0.981 ± 0.05
C[C@@H]1CCCCO[C@@H](CN(C)S(=O)(=O)c2cn(C)cn2)[C@H](C)CN([C@@H](C)CO)C(=O)c2cc(NC(=O)Nc3cccc4ccccc34)ccc2O1	1.02 ± 0.062	–
O=C(C[C@H]1C=C[C@H](NC(=O)Nc2ccc3c(c2)OCO3)[C@H](CO)O1)NCCCN1CCOCC1	0.9928 ± 0.0036	–

Source: the supplement of paper PMC4723716
